Experimental data: the supplement of paper PMC11125491
± gives the standard deviation of the averaged measurements. Growth of baker's yeast expressing single-residue variants of Pneumocystis jirovecii dihydrofolate reductase in 8.8 or 44 µM methotrexate (about 75% and 90% inhibition of the wild type). Selection coefficient per generation; 0 = like wild type, above 0 = less sensitive, below 0 = more sensitive or loss of function. No active / inactive call per row; the paper calls resistant above 0.220 (8.8 µM) or 0.243 (44 µM) together with a significance test. At 44 µM about 15% of codons end with one read or none, so the lowest values are floors (replicate rank correlation 0.74; 0.94 at 8.8 µM).

B1: UniProt A0EPZ9; numbered along this chain (parent)
chain: MDWQKSLTLIVALTLSRGIGLKNDLPWKLKSDMMFFSRVTSGLLVTRSTGQMNVVLMGRKTWESLPAHSRPLKNRINVVISRQEVLDLGGGAYHARSLDDALALLSQIYDSTSKIQLNRVFVIGGGELCKAAMEHSRLNRIIATVIHNEVDCDVFFPIDFRSSQSCLPWRKQDHSVLEAWVGSKVPQGKINENGFIYEFEMWIRDI

Variants of: B1
Assay: selection coefficient against synonymous wild-type codons (log2 per generation); higher = faster growth than wild type
Details: with Saccharomyces cerevisiae carrying the variant on a plasmid
Description: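 Pooled growth of yeast carrying single-residue variants of P. jirovecii dihydrofolate reductase (own DFR1 gene intact), two passages at 30 °C, three cultures, sequenced before and after. Codons with under 15 starting reads are left out; codons of one change are averaged.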

MDWAKSLTLIVALTLSRGIGLKNDLPWKLKSDMMFFSRVTSGLLVTRSTGQMNVVLMGRKTWESLPAHSRPLKNRINVVISRQEVLDLGGGAYHARSLDDALALLSQIYDSTSKIQLNRVFVIGGGELCKAAMEHSRLNRIIATVIHNEVDCDVFFPIDFRSSQSCLPWRKQDHSVLEAWVGSKVPQGKINENGFIYEFEMWIRDI [Q4A]
selection coefficient against synonymous wild-type codons (log2) (methotrexate 8.8 µM): -0.168 ± 0.094
selection coefficient against synonymous wild-type codons (log2) (methotrexate 44 µM): -0.255 ± 0.12

MDWCKSLTLIVALTLSRGIGLKNDLPWKLKSDMMFFSRVTSGLLVTRSTGQMNVVLMGRKTWESLPAHSRPLKNRINVVISRQEVLDLGGGAYHARSLDDALALLSQIYDSTSKIQLNRVFVIGGGELCKAAMEHSRLNRIIATVIHNEVDCDVFFPIDFRSSQSCLPWRKQDHSVLEAWVGSKVPQGKINENGFIYEFEMWIRDI [Q4C]
selection coefficient against synonymous wild-type codons (log2) (methotrexate 8.8 µM): -0.0888 ± 0.092
selection coefficient against synonymous wild-type codons (log2) (methotrexate 44 µM): -0.0945 ± 0.11

MDMQKSLTLIVALTLSRGIGLKNDLPWKLKSDMMFFSRVTSGLLVTRSTGQMNVVLMGRKTWESLPAHSRPLKNRINVVISRQEVLDLGGGAYHARSLDDALALLSQIYDSTSKIQLNRVFVIGGGELCKAAMEHSRLNRIIATVIHNEVDCDVFFPIDFRSSQSCLPWRKQDHSVLEAWVGSKVPQGKINENGFIYEFEMWIRDI [W3M]
selection coefficient against synonymous wild-type codons (log2) (methotrexate 8.8 µM): 0.392 ± 0.029
selection coefficient against synonymous wild-type codons (log2) (methotrexate 44 µM): 0.423 ± 0.043

MDTQKSLTLIVALTLSRGIGLKNDLPWKLKSDMMFFSRVTSGLLVTRSTGQMNVVLMGRKTWESLPAHSRPLKNRINVVISRQEVLDLGGGAYHARSLDDALALLSQIYDSTSKIQLNRVFVIGGGELCKAAMEHSRLNRIIATVIHNEVDCDVFFPIDFRSSQSCLPWRKQDHSVLEAWVGSKVPQGKINENGFIYEFEMWIRDI [W3T]
selection coefficient against synonymous wild-type codons (log2) (methotrexate 8.8 µM): 0.322 ± 0.026
selection coefficient against synonymous wild-type codons (log2) (methotrexate 44 µM): 0.369 ± 0.041

MDHQKSLTLIVALTLSRGIGLKNDLPWKLKSDMMFFSRVTSGLLVTRSTGQMNVVLMGRKTWESLPAHSRPLKNRINVVISRQEVLDLGGGAYHARSLDDALALLSQIYDSTSKIQLNRVFVIGGGELCKAAMEHSRLNRIIATVIHNEVDCDVFFPIDFRSSQSCLPWRKQDHSVLEAWVGSKVPQGKINENGFIYEFEMWIRDI [W3H]
selection coefficient against synonymous wild-type codons (log2) (methotrexate 8.8 µM): 0.167 ± 0.025
selection coefficient against synonymous wild-type codons (log2) (methotrexate 44 µM): 0.178 ± 0.018

MDYQKSLTLIVALTLSRGIGLKNDLPWKLKSDMMFFSRVTSGLLVTRSTGQMNVVLMGRKTWESLPAHSRPLKNRINVVISRQEVLDLGGGAYHARSLDDALALLSQIYDSTSKIQLNRVFVIGGGELCKAAMEHSRLNRIIATVIHNEVDCDVFFPIDFRSSQSCLPWRKQDHSVLEAWVGSKVPQGKINENGFIYEFEMWIRDI [W3Y]
selection coefficient against synonymous wild-type codons (log2) (methotrexate 8.8 µM): -0.0177 ± 0.1
selection coefficient against synonymous wild-type codons (log2) (methotrexate 44 µM): 0.041 ± 0.11

MDKQKSLTLIVALTLSRGIGLKNDLPWKLKSDMMFFSRVTSGLLVTRSTGQMNVVLMGRKTWESLPAHSRPLKNRINVVISRQEVLDLGGGAYHARSLDDALALLSQIYDSTSKIQLNRVFVIGGGELCKAAMEHSRLNRIIATVIHNEVDCDVFFPIDFRSSQSCLPWRKQDHSVLEAWVGSKVPQGKINENGFIYEFEMWIRDI [W3K]
selection coefficient against synonymous wild-type codons (log2) (methotrexate 8.8 µM): 0.265 ± 0.01
selection coefficient against synonymous wild-type codons (log2) (methotrexate 44 µM): 0.269 ± 0.0099

MDNQKSLTLIVALTLSRGIGLKNDLPWKLKSDMMFFSRVTSGLLVTRSTGQMNVVLMGRKTWESLPAHSRPLKNRINVVISRQEVLDLGGGAYHARSLDDALALLSQIYDSTSKIQLNRVFVIGGGELCKAAMEHSRLNRIIATVIHNEVDCDVFFPIDFRSSQSCLPWRKQDHSVLEAWVGSKVPQGKINENGFIYEFEMWIRDI [W3N]
selection coefficient against synonymous wild-type codons (log2) (methotrexate 8.8 µM): 0.247 ± 0.035
selection coefficient against synonymous wild-type codons (log2) (methotrexate 44 µM): 0.222 ± 0.063

MDRQKSLTLIVALTLSRGIGLKNDLPWKLKSDMMFFSRVTSGLLVTRSTGQMNVVLMGRKTWESLPAHSRPLKNRINVVISRQEVLDLGGGAYHARSLDDALALLSQIYDSTSKIQLNRVFVIGGGELCKAAMEHSRLNRIIATVIHNEVDCDVFFPIDFRSSQSCLPWRKQDHSVLEAWVGSKVPQGKINENGFIYEFEMWIRDI [W3R]
selection coefficient against synonymous wild-type codons (log2) (methotrexate 8.8 µM): 0.218 ± 0.13
selection coefficient against synonymous wild-type codons (log2) (methotrexate 44 µM): 0.238 ± 0.13

MDIQKSLTLIVALTLSRGIGLKNDLPWKLKSDMMFFSRVTSGLLVTRSTGQMNVVLMGRKTWESLPAHSRPLKNRINVVISRQEVLDLGGGAYHARSLDDALALLSQIYDSTSKIQLNRVFVIGGGELCKAAMEHSRLNRIIATVIHNEVDCDVFFPIDFRSSQSCLPWRKQDHSVLEAWVGSKVPQGKINENGFIYEFEMWIRDI [W3I]
selection coefficient against synonymous wild-type codons (log2) (methotrexate 8.8 µM): 0.0471 ± 0.025
selection coefficient against synonymous wild-type codons (log2) (methotrexate 44 µM): 0.0291 ± 0.098

MDVQKSLTLIVALTLSRGIGLKNDLPWKLKSDMMFFSRVTSGLLVTRSTGQMNVVLMGRKTWESLPAHSRPLKNRINVVISRQEVLDLGGGAYHARSLDDALALLSQIYDSTSKIQLNRVFVIGGGELCKAAMEHSRLNRIIATVIHNEVDCDVFFPIDFRSSQSCLPWRKQDHSVLEAWVGSKVPQGKINENGFIYEFEMWIRDI [W3V]
selection coefficient against synonymous wild-type codons (log2) (methotrexate 8.8 µM): 0.214 ± 0.069
selection coefficient against synonymous wild-type codons (log2) (methotrexate 44 µM): 0.23 ± 0.07

MDLQKSLTLIVALTLSRGIGLKNDLPWKLKSDMMFFSRVTSGLLVTRSTGQMNVVLMGRKTWESLPAHSRPLKNRINVVISRQEVLDLGGGAYHARSLDDALALLSQIYDSTSKIQLNRVFVIGGGELCKAAMEHSRLNRIIATVIHNEVDCDVFFPIDFRSSQSCLPWRKQDHSVLEAWVGSKVPQGKINENGFIYEFEMWIRDI [W3L]
selection coefficient against synonymous wild-type codons (log2) (methotrexate 8.8 µM): -0.0307 ± 0.065
selection coefficient against synonymous wild-type codons (log2) (methotrexate 44 µM): 0.0209 ± 0.1

MDSQKSLTLIVALTLSRGIGLKNDLPWKLKSDMMFFSRVTSGLLVTRSTGQMNVVLMGRKTWESLPAHSRPLKNRINVVISRQEVLDLGGGAYHARSLDDALALLSQIYDSTSKIQLNRVFVIGGGELCKAAMEHSRLNRIIATVIHNEVDCDVFFPIDFRSSQSCLPWRKQDHSVLEAWVGSKVPQGKINENGFIYEFEMWIRDI [W3S]
selection coefficient against synonymous wild-type codons (log2) (methotrexate 8.8 µM): 0.239 ± 0.017
selection coefficient against synonymous wild-type codons (log2) (methotrexate 44 µM): 0.194 ± 0.068

MDQQKSLTLIVALTLSRGIGLKNDLPWKLKSDMMFFSRVTSGLLVTRSTGQMNVVLMGRKTWESLPAHSRPLKNRINVVISRQEVLDLGGGAYHARSLDDALALLSQIYDSTSKIQLNRVFVIGGGELCKAAMEHSRLNRIIATVIHNEVDCDVFFPIDFRSSQSCLPWRKQDHSVLEAWVGSKVPQGKINENGFIYEFEMWIRDI [W3Q]
selection coefficient against synonymous wild-type codons (log2) (methotrexate 8.8 µM): 0.337 ± 0.018
selection coefficient against synonymous wild-type codons (log2) (methotrexate 44 µM): 0.378 ± 0.013

MDPQKSLTLIVALTLSRGIGLKNDLPWKLKSDMMFFSRVTSGLLVTRSTGQMNVVLMGRKTWESLPAHSRPLKNRINVVISRQEVLDLGGGAYHARSLDDALALLSQIYDSTSKIQLNRVFVIGGGELCKAAMEHSRLNRIIATVIHNEVDCDVFFPIDFRSSQSCLPWRKQDHSVLEAWVGSKVPQGKINENGFIYEFEMWIRDI [W3P]
selection coefficient against synonymous wild-type codons (log2) (methotrexate 8.8 µM): 0.21 ± 0.079
selection coefficient against synonymous wild-type codons (log2) (methotrexate 44 µM): 0.22 ± 0.13
